Measured values from US20140212423A1 (AbbVie / Abbott, published 2014).

Key:
[1] = biological target: T1, mouse Transferrin Receptor overexpressed on Hek 293 cells (mouse, UniProt Q62351); assay: MSD-ECL assay, column headed IC50 (values match the cell-based mTfR binding EC50 of Table 7)
T1 construct: whole, on cells; also called Hek293/mTfR; 293/mTFR

[2] = biological target: T1, mouse Transferrin Receptor …; assay: cell-based MSD-ECL binding on Hek293 cells overexpressing mouse TfR
Description: Meso-scale Discovery (MSD) Electrochemiluminescesnce (ECL) assays to screen for antibodies or DVDs that bind a desired target antigen expressed on the cell surface were performed as follows: Hek 293 cells overexpressing mouse Transferin Receptor were added onto MSD 96-well plates (MSD Cat# L11 XB-3, lot#2290-EA) which were blocked using blocking buffer (30% FBS Serum (Hyclone) in PBS) at 37° C. for 1 hr. After incubating at RT for 30 min with mild agitation, plates were washed with DPBS 3 times and Abs/DVDs (10,000 ng/ml) were added. After incubating for 1 hr at RT, plates were washed 3 times with DPBS and 25 ul of Goat anti human Sulfo TAG (MSD Cat# R32AC-, Lot# W001162) at 1 μg/ml is added. Following a 1 h incubation at RT for 1 hr, plates are washed and MSD read buffer is added before reading on MSD SECTOR Imager 6000. EC50 values are obtained using Xlfit4 software package

T1 sequence (Q62351 whole entry): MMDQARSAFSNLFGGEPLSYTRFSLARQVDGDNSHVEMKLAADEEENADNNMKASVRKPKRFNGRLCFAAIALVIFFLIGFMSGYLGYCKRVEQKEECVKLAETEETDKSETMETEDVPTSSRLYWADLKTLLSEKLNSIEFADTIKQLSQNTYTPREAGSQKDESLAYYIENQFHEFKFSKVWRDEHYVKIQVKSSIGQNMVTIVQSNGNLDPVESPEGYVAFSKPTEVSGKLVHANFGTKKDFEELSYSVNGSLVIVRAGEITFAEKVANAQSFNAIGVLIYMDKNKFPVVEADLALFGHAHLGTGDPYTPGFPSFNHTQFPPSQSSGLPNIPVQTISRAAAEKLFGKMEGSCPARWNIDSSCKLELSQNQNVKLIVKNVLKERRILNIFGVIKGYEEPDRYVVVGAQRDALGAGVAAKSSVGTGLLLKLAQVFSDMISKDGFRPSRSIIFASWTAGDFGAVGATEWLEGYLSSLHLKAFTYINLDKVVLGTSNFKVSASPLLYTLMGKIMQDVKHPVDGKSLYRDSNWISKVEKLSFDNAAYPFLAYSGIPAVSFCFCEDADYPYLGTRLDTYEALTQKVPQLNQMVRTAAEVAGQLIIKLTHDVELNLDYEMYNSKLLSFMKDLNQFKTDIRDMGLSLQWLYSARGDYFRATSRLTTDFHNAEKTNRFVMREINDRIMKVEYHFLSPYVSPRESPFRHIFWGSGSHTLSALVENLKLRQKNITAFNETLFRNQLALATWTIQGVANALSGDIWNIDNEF

Binder	IC50 [1]	EC50 [2]
DVD2575 (bispecific antibody, DVD-Ig; also called TfRSSHer2 DVD2575) VH: EVQLVESGGGLVQPGNSLTLSCVASGFTFSNYGMHWIRQAPKKGLEWIAMIYYDSSKMNYADTVKGRFTISRDNSKNTLYLEMNSLRSEDTAMYYCAVPTSHYVVDVWGQGVSVTVSSASTKGP[sequence of about 120 residues omitted] VL: DIQMTQSPASLSASLEEIVTITCQASQDIGNWLAWYQQKPGKSPQLLIYGATSLADGVPSRFSGSRSGTQFSLKISRVQVEDIGIYYCLQAYNTPWTFGGGTKLELKRTVAAP[sequence of about 100 residues omitted]	0.1 nM	0.11 nM
DVD2576 (bispecific antibody, DVD-Ig, outer AB004 (Her2), inner AB221 (TfR), HG-short/LK-short; dual variable regions only; constant regions not assigned; also called Her2SSTfR DVD2576) VH: [sequence of about 120 residues omitted]ASTKGPEVQLVESGGGLVQPGNSLTLSCVASGFTFSNYGMHWIRQAPKKGLEWIAMIYYDSSKMNYADTVKGRFTISRDNSKNTLYLEMNSLRSEDTAMYYCAVPTSHYVVDVWGQGVSVTVSS VL: [sequence of about 100 residues omitted]RTVAAPDIQMTQSPASLSASLEEIVTITCQASQDIGNWLAWYQQKPGKSPQLLIYGATSLADGVPSRFSGSRSGTQFSLKISRVQVEDIGIYYCLQAYNTPWTFGGGTKLELKR	3.4 nM	3.4 nM
